Reference: PubChem BioAssay AID1347120 (National Center for Advancing Translational Sciences (NCATS), 2019)
Hit rate of the full screen: of about 390,000 compounds, about 930 (0.24%) were called active. Inconclusive means that the source gave no clear call. Such entries were picked first, then a sample of the others. The call rests on the fitted dose curve; in most records, active means well fitted activation curve with a large enough effect; inconclusive means small, poorly fitted or top-dose-only effect; inactive means no such curve, though single readings can be large or run the other way. Where the call is inconclusive, the potency comes from a doubtful curve fit.

assay: qHTS for Suppressors of FUS Proteinopathy: Primary screen using FUS-linked yeast assay; further: nearly all actives have a fitted effect of over 55% in size;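 on growth rescue (activation): plate controls were DMSO vehicle for no effect and reference control for full effect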; conditions: S. cerevisiae FUS-expressing, OD600, 24 h; Potency: growth rescue; growth rescue (activation): at 76.6 µM (top of the series)
Procedure, shortened: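 Read-out: OD at 600 nm after 24hr at 30C, reporting rescue of FUS-induced yeast toxicity. Cells at OD 0.005 in galactose (2%) minimal medium; compounds tested in a dilution series; CP55940 titration from 92uM final as control.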
Potency means the concentration at half of the fitted maximal effect; tags describe the fitted curve by direction and shape.

SMILES	growth rescue (activation)	Potency
COc1ccc(S(=O)(=O)c2c(Nc3ccc(C)cc3)sc(C(=O)c3ccc4c(c3)OCO4)c2N)cc1	inactive: 34.7%	–
COc1ccc(S[C@]2(C(=O)N3CCOCC3)CC(=O)N(c3ccc(C#N)cc3)[C@@H]2c2ccc(OC)cc2)cc1	–	inconclusive: 20 µM [activator, partial curve, poor fit]
CCNc1ccccc1CP(=O)(c1ccccc1)c1ccccc1O (stereo unspecified)	–	inconclusive: 28.2 µM [activator, partial curve, poor fit]
COc1ccccc1N1CCN(c2nc3ccc(C)cc3n3nnnc23)CC1	inactive: 16.4%	–
CC(=O)c1ccc(NC(=O)C(C)OC(=O)c2ccc(NS(=O)(=O)c3ccc(F)c(F)c3)cc2)cc1 (stereo unspecified)	–	inconclusive: 25.1 µM [activator, single point]
CC(=O)Nc1nc2ncccn2c1-c1ccc(C)cc1	inactive: -7.27%	–
CC(C)(C)c1ccc(-c2cc(C(=O)NNC(=O)Nc3ccccc3)c3ccccc3n2)cc1	–	inconclusive: 14.1 µM [activator, partial curve, poor fit]
Cc1[nH][nH]c(=O)c1C(c1c(C)[nH][nH]c1=O)c1cn(Cc2cccc3ccccc23)c2ccccc12	–	inconclusive: 28.2 µM [activator, single point]
O=C(Cc1ccc(Cl)cc1)NCC(c1cccs1)S(=O)(=O)c1ccc(F)cc1 (stereo unspecified)	–	inconclusive: 31.6 µM [activator, partial curve, poor fit]
C[C@@H]1CN([C@@H](C)CO)C(=O)c2cc(C#Cc3cccc(F)c3)cnc2O[C@H]1CN(C)C(=O)C1CCCCC1	–	inconclusive: 28.2 µM [activator, single point]
Cc1cc(C)n(CCc2nc(-c3ccc(C)o3)cs2)n1	–	inconclusive: 7.08 µM [activator, full curve]
Cc1cc2c(cc1C)-n1nnnc1C(N1CCN(C(=O)OCc3ccccc3)CC1)C(=O)N2 (stereo unspecified)	–	inconclusive: 10 µM [activator, partial curve, poor fit]
COc1cc(NC(=O)COC(=O)c2cnccn2)c(C)cc1[N+](=O)[O-]	–	inconclusive: 35.5 µM [activator, partial curve]
O=S(=O)(c1ccccc1)N1CCN(c2nnnn2-c2ccccc2)CC1	inactive: -1%	–
Cc1ccccc1C(=O)N1CCc2cc(-c3nc(NC(=O)Cc4ccc5c(c4)OCO5)sc3C)ccc21	–	inconclusive: 12.6 µM [activator, partial curve]
Cc1cc(C)cc(NC(=O)C2CCC(CNS(=O)(=O)c3ccc4c(c3)C(C)(C)C(=O)N4C)CC2)c1 (stereo unspecified)	–	inconclusive: 31.6 µM [activator, single point]
COc1cccc(CNC(=O)CN2C(=O)COc3ccc(S(=O)(=O)Nc4ccccc4)cc32)c1	–	inconclusive: 50.1 µM [activator, single point]
Cc1noc(C)c1COc1ccc(CC(=O)NCCc2ccccc2)cc1	inactive: -16.1%	–
CC(C)C[C@@H](CN)NC(=O)c1nc[nH]c1C(=O)N[C@@H](Cc1c[nH]c2ccccc12)C(=O)CNC[C@H](C)NC(=O)c1nc[nH]c1C(=O)N[C@@H](CC(=O)O)C(=O)O	–	inconclusive: 44.7 µM [activator, single point]
CCOC(=O)c1ccc(-c2c(-c3ccccc3OC)sc3ccc(OC)cc23)cc1F	–	inconclusive: 14.1 µM [activator, partial curve]
CN(C)C(=O)CCc1ccc2c3c([nH]c2c1)[C@]1(C)[C@@H](C(=O)N2CCCCC2)C[C@H](CC(=O)NCc2cccc(C(F)(F)F)c2)C(=O)N1CC3	–	inconclusive: 12.6 µM [activator, partial curve, poor fit]

SMILES	growth rescue (activation)	Potency
Cc1ccc(-c2nc3ccc(Cl)cn3c2Cc2ccsc2)cc1	inactive: 11.2%	–
Cc1cccc(C(=O)O/N=C(\c2ccccc2)c2cccnc2)c1	inactive: 24.2%	–
CCC[C@@H](/C=C/C(=O)OC(C)(C)C)Sc1ccc(C(C)(C)C)cc1	inactive: -1.83%	–
O=C(Nc1nc2ccc(S(=O)(=O)N3CCCCC3)cc2s1)c1ccncc1	–	active: 35.5 µM
Cc1cccc(/C=C/c2onc(C)c2[N+](=O)[O-])n1	inactive: -22.8%	–
CN(C)c1cccc(/C=C2\CC3(OC(=O)c4cccc(F)c4)CCCN2C3)c1 (stereo unspecified)	inactive: 18.5%	–
COc1ccc(C(=O)OCCCN(C)C2CN(Cc3cn(Cc4ccccc4C(F)(F)F)nn3)S(=O)(=O)C2)cc1OC (stereo unspecified)	inactive: 32.5%	–
COc1ccccc1NC(=S)N1CCC(NC(=O)NC23CC4CC(CC(C4)C2)C3)CC1	–	inconclusive: 22.4 µM [activator, partial curve]
CCc1c(C)sc(NC(=O)OC)c1C(=O)N1CCCCC1	–	inconclusive: 17.8 µM [activator, partial curve, poor fit]
C[C@@H]1CN([C@H](C)CO)C(=O)c2c(c3ccccc3n2C)-c2ccccc2CO[C@H]1CN(C)Cc1ccc(-c2ccccc2)cc1	–	inconclusive: 35.5 µM [activator, single point]
O=C(c1cc(S(=O)(=O)N2CCOCC2)ccc1F)N(CCc1ccccc1)Cc1ccccc1	–	inconclusive: 50.1 µM [activator, partial curve, poor fit]
Cc1ccc(S(=O)(=O)N2CCC(C(=O)OCC(=O)NC(C)c3ccc(F)cc3)CC2)cc1C (stereo unspecified)	–	inconclusive: 22.4 µM [activator, partial curve, poor fit]
Cc1c(N2C(=O)/C(=C/c3ccc(N(C)C)cc3)N(C)C2=S)c(=O)n(-c2ccccc2)n1C	–	inconclusive: 50.1 µM [activator, single point]
COc1ccc2nc(SCC(=O)c3c(C)[nH]c4ccccc34)nc(C)c2c1	inactive: 11.7%	–
Cc1ccc(S(=O)(=O)c2nnn3c2nc(N2CCN(c4ccc(F)cc4)CC2)c2cc(Cl)ccc23)cc1C	inactive: -14.2%	–
CC(=O)c1ccc(-c2ccc([C@H]3[C@@H]4C=CCC[C@@]4(C)C(=O)N3Cc3ccccc3)c(F)c2)cc1	–	inconclusive: 20 µM [activator, single point]
CCc1ccc2oc(-c3cc(N)ccc3O)nc2c1	inactive: 37.5%	–
O=C(O)CCC(=O)N1CCc2cc(S(=O)(=O)NC3CCCc4ccccc43)ccc21 (stereo unspecified)	inactive: 22.4%	–
CC(C)OCCCNC(=O)c1ccc(-n2c(-c3ccccc3)cc3c2CCCC3)cc1	–	inconclusive: 25.1 µM [activator, partial curve, poor fit]
CCc1cccc(CC)c1-n1c(SCC(=O)N2CCc3ccccc3C2)nnc1-c1cccnc1	–	inconclusive: 12.6 µM [activator, partial curve]
CN(C(=O)c1ccc(NC(=O)Cc2cccc(NC(=O)C3CCCN(S(=O)(=O)c4cccc([N+](=O)[O-])c4)C3)c2)cc1)C1CC1 (stereo unspecified)	–	inconclusive: 20 µM [activator, single point]

SMILES	growth rescue (activation)	Potency
O=C(c1ccco1)N1CCN(C(=O)c2cc3sccc3n2Cc2ccccc2)CC1	–	inconclusive: 39.8 µM [activator, partial curve, poor fit]
COc1ccc(-c2oc3ncnc(NCCCN(C)C)c3c2-c2ccc(OC)cc2)cc1	–	inconclusive: 20 µM [activator, partial curve, poor fit]
COc1ccccc1C(=O)OCc1c(-c2ccccc2)ncc2ccccc12	–	inconclusive: 17.8 µM [activator, single point]
Nc1ccc(CNC(=O)OCC2c3ccccc3-c3ccccc32)cc1	–	inconclusive: 50.1 µM [activator, partial curve, poor fit]
CC(NC(=O)c1cc(Sc2ccc(F)cc2F)nc2ccccc12)c1ccccc1 (stereo unspecified)	inactive: 23.4%	–
CCCCCCCCN1C(=O)[C@H](CC(=O)NCc2cccc(C(F)(F)F)c2)C[C@@]2(C(=O)OC)CC(C)(C)CC=C12	–	inconclusive: 5.01 µM [activator, full curve]
COCCn1c(C)cc(O)c(C(c2ccccc2)N2CCN(C)CC2)c1=O (stereo unspecified)	inactive: 14%	–
Cc1cccc(NC(=O)CSc2nc3ccc(NC(=O)c4ccco4)cc3s2)c1	inactive: 21.6%	–
Cc1ccc(-c2nc3cc(C(C)C)ccc3o2)cc1NC(=O)c1cccs1	inactive: 0.177%	–
COC(=O)\C(C(C)=O)=C(/C=C/C=C/C=C/N(C)C)N(C)C	–	inconclusive: 12.6 µM [activator, partial curve]
COc1cc(Cn2c(=O)sc3ccccc32)ccc1OC(C)C	inactive: -1.27%	–
CCCCOC(=O)COc1ccc(Cl)cc1Cl	–	inconclusive: 11.2 µM [activator, single point]
COc1cccc(N2C(=O)CC(c3c[nH]c4ccccc34)C2=O)c1 (stereo unspecified)	–	inconclusive: 39.8 µM [activator, single point]
CCC1Nc2ncnc(N3CCN(c4ccccc4)CC3)c2N(Cc2ccc(Br)cc2)C1=O (stereo unspecified)	–	inconclusive: 20 µM [activator, partial curve, poor fit]
CCOC(=O)c1cnc(SC2CCc3ccccc3C2=O)nc1N (stereo unspecified)	–	inconclusive: 20 µM [activator, partial curve]
CCOC(=O)N1CCN(C(=O)C[C@@H]2C[C@@]3(C(=O)OC)CC(C)(C)CC=C3N(Cc3ccc4c(c3)OCO4)C2=O)CC1	–	inconclusive: 7.94 µM [activator, partial curve]
COc1ccc(N(CC(=O)NCCc2cccc(C)c2)S(=O)(=O)c2c(C)nn(C)c2C)cc1	–	inconclusive: 10 µM [activator, partial curve]
O=C(c1ccco1)[C@@H]1[C@@H]2C(=O)N(c3ccc(Br)cc3)C(=O)[C@@H]2C2c3ccccc3C=CN21 (stereo partly specified)	–	inconclusive: 44.7 µM [activator, single point]
CCCN1C=CC(=C2C(=O)c3ccccc3C2=O)C=C1	inactive: 12.7%	–
